The shares of active, inactive and inconclusive entries below differ from those in the screen. For part of these data: No potency is given beside an inconclusive call; the fits are too rough. The source made the active and inactive calls. Unless noted, calls come from the whole dose curve; as a rule, active = well fitted curve in the direction sought with a large enough effect; inconclusive = small, poorly fitted or top-dose-only effect, or another doubt; inactive = no such curve, though single readings can be large; an effect the other way counts as inactive or inconclusive.
Key:
[1] = target: Rap guanine nucleotide exchange factor 3 (Homo sapiens) (UniProt O95398); experiment: Confirmatory qHTS for agonist of cAMP-regulated guanine nucleotide exchange factor 3 (EPAC1) (AID 1645881); conditions: EPAC1 Rap1B BODIPY-GDP exchange fluorescence; activation: at 154 µM (top of the series), 100% = cAMP control response; note: nearly all actives have a fitted effect of over 75% in size; note: potency is the fitted concentration of half-maximal effect;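 for activation: EPAC1 catalysed release of BODIPY-GDP from Rap1B seen as fluorescence loss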
[2] = target: Rap guanine nucleotide exchange factor 4 (Homo sapiens) (UniProt Q8WZA2); experiment: Confirmatory qHTS for agonist of cAMP-regulated guanine nucleotide exchange factor 4 (EPAC2) (AID 1645884);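 note: nucleotide exchange releases bodipy-GDP from Rap1 and this lowers its fluorescence; nearly all actives have a fitted effect of over 65% in size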; note: potency is the fitted concentration of half-maximal effect; for activation: % is set by controls: 0 for no effect and ±100 for the full control effect
[3] = target: Rap guanine nucleotide exchange factor 3 (Homo sapiens) (UniProt O95398); experiment: Counterscreen qHTS for agonist of cAMP-regulated guanine nucleotide exchange factor 3 (EPAC1) (AID 1645889); conditions: EPAC1 Rap1B-BODIPY-GDP exchange, fluorescence; activation: at 154 µM (top of the series) unless noted; note: nearly all actives have a fitted effect of over 40% in size; note: potency is the fitted concentration of half-maximal effect; for activation: % of control where 0% means no effect
In short: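 Rap1B-BODIPY-GDP 250 nM + GDP 50 uM; cpds 7-pt, final 9.74 nM–152 uM (activator mode) or from 7.32 nM upwards (inhibitor mode); RT; FI 480/540 nm at 5 and 30 min, then ± cAMP, reread.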

[4] = NFAT Signaling Pathway (AID 444; active = well fitted curve in either direction with a large enough effect, not every such curve was filed as active; inconclusive = small, poorly fitted or top-dose-only effect, or another doubt;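 note: carbachol stimulus at about its EC50 of 1 µM final; % is set by controls: 0 for no effect and ±100 for the full control effect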); conditions: Jurkat NFAT-bla M1, carbachol, beta-lactamase ratio, 5 h; at 17.2 µM (top of the series) unless noted
In short: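 Read-out: CCF4 FRET ratio (460 nm/530 nm) after 1 h RT dye loading, used for %activity and AC50 from titration series. Cells: Jurkat NFAT-β-lactamase/M1 line, treated with compound plus 1 uM carbachol for 5 h, 37 °C.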

[5] = target: Mitogen-activated protein kinase 10 (Mus musculus) (UniProt Q61831); experiment: JNK3 AlphaScreen Assay (AID 530; active = well fitted curve in either direction with a large enough effect, not every such curve was filed as active; inconclusive = small, poorly fitted or top-dose-only effect, or another doubt;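 note: kinase came from lysate of stimulated human HepG2 cells; signal reports phosphorylation of biotinylated GST-cJun 1-79 at Ser73 with 10 µM ATP; % is set by controls: 0 for no effect and ±100 for the full control effect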); conditions: JNK3 lysate, c-Jun phosphorylation; activity change, negative = inhibition: at 57.1 µM (top of the series)
In short: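 Compound titrations were preincubated 15 minutes at room temperature with substrate, antibody and pre-activated JNK3-containing HepG2 lysate. Reactions were started with 10 uM ATP and stopped with EDTA-containing bead buffer for AlphaScreen detection.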

[6] = target: Dual specificity protein kinase CLK4 (Homo sapiens) (UniProt Q9HAZ1); experiment: qHTS Assay for Inhibitors of CDC-like Kinase 4 (Kinase-Glo Assay) (AID 1770); note: potency is the fitted concentration of half-maximal effect; nearly all actives have a fitted effect of over 65% in size
In short: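 25 nM Clk4 with 100 uM RS repeat peptide and 1 uM ATP (final) in Tris pH7.5, 10 mM MgCl2, 4.5 h at room temperature. Remaining ATP measured by Kinase-Glo luciferase luminescence.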

[7] = target: Dual specificity protein kinase CLK4 (Homo sapiens) (UniProt Q9HAZ1); experiment: qHTS Assay for Inhibitors of CDC-like Kinase 4 (ADP-Glo Assay) (AID 1771); note: potency is the fitted concentration of half-maximal effect; nearly all actives have a fitted effect of over 70% in size
In short: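 Luminescence from ADP-Glo reports ADP produced by 25 nM Clk4 acting on 100 uM RS repeat peptide with 1 uM ATP over 1 hr at room temperature; residual ATP is depleted before ADP is converted to ATP for detection.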

[8] = target: Dual specificity protein kinase CLK4 (Homo sapiens) (UniProt Q9HAZ1); experiment: qHTS Assay for Inhibitors of CDC-like Kinase 4 (ADP-FP Assay) (AID 1795);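 note: recombinant human CLK4 phosphorylating RS repeat peptide at 1 µM ATP; potency is the fitted concentration of half-maximal effect; nearly all actives have a fitted effect of over 60% in size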
In short: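 Recombinant Clk4 (6.25 nM) phosphorylated 100 uM RS repeat peptide with 1 uM ATP in 25 mM Tris pH 7.5, 10 mM MgCl2, 0.5 mM EGTA, 2.5 mM DTT, 0.01% Triton X-100 for 1 h. ADP was detected by Transcreener ADP2 competitive fluorescence polarization after 30 min at room temperature.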

[9] = target: Ubiquitin carboxyl-terminal hydrolase 1 (Homo sapiens) (UniProt O94782); experiment: Inhibitors of USP1/UAF1: Pilot qHTS (AID 504865);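 note: rhodamine fluorescence freed from ubiquitin-rhodamine substrate followed over time; potency is the fitted concentration of half-maximal effect; nearly all actives have a fitted effect of over 35% in size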
In short: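 USP1/UAF1 complex at 1 nM preincubated 15 min at room temperature with compound, then Ub-Rho substrate added at 150 nM final. Fluorescence (480/540 nm) read kinetically in 50 mM HEPES pH 7.8, 0.5 mM EDTA, 1 mM TCEP, 0.1 mg/ml BSA, 0.01% Tween-20.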

[10] = target: Rap guanine nucleotide exchange factor 4 (Homo sapiens) (UniProt Q8WZA2); experiment: Confirmatory qHTS for antagonist of cAMP-regulated guanine nucleotide exchange factor 4 (EPAC2) (AID 1645885); conditions: activity change, negative = inhibition: at 12.7 µM (top of the series) unless noted; note: % is set by controls: 0 for no effect and ±100 for the full control effect; nearly all actives have a fitted effect of over 25% in size
Tags give direction and shape of the fitted curve.

UniProt Q9HAZ1, sequence (Q9HAZ1 whole entry, looked up): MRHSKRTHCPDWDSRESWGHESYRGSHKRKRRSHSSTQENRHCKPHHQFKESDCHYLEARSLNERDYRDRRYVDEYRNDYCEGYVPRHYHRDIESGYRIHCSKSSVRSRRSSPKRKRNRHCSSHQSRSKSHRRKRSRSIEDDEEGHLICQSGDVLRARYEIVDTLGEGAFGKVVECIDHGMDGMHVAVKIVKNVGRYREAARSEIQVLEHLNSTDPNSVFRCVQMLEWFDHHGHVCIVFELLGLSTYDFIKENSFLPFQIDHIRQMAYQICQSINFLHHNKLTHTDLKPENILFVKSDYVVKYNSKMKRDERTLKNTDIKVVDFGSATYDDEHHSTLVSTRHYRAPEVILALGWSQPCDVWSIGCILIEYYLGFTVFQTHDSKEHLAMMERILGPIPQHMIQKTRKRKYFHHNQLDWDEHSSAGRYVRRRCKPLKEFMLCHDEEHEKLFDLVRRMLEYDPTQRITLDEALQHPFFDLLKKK
UniProt Q8WZA2, sequence (Q8WZA2 whole entry, looked up): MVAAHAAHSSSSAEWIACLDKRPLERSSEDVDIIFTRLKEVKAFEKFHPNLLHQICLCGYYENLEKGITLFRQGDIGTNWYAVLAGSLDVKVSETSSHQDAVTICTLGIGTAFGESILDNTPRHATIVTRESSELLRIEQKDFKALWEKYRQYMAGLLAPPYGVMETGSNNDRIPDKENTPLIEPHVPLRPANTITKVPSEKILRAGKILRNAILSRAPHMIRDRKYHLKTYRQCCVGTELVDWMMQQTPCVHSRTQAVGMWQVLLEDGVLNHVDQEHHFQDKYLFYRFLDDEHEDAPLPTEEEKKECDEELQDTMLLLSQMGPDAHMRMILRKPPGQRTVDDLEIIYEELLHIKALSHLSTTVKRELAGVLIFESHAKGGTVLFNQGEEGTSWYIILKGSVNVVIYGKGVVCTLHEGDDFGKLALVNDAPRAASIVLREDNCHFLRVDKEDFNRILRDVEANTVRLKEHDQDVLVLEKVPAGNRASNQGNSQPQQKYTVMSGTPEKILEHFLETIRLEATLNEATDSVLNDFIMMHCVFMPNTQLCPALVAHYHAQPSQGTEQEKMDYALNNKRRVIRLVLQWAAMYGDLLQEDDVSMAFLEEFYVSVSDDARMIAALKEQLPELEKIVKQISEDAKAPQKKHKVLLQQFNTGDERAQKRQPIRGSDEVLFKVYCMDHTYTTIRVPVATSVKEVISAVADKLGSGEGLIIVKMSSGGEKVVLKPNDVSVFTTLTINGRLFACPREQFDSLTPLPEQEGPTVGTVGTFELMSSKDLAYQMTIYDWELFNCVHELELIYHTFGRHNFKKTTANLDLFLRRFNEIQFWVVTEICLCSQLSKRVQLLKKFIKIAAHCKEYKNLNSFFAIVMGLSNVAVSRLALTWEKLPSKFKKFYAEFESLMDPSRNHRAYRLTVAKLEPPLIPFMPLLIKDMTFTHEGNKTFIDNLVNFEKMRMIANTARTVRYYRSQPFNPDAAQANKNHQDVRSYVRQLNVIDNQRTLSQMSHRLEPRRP
UniProt O95398, sequence (O95398 whole entry, looked up): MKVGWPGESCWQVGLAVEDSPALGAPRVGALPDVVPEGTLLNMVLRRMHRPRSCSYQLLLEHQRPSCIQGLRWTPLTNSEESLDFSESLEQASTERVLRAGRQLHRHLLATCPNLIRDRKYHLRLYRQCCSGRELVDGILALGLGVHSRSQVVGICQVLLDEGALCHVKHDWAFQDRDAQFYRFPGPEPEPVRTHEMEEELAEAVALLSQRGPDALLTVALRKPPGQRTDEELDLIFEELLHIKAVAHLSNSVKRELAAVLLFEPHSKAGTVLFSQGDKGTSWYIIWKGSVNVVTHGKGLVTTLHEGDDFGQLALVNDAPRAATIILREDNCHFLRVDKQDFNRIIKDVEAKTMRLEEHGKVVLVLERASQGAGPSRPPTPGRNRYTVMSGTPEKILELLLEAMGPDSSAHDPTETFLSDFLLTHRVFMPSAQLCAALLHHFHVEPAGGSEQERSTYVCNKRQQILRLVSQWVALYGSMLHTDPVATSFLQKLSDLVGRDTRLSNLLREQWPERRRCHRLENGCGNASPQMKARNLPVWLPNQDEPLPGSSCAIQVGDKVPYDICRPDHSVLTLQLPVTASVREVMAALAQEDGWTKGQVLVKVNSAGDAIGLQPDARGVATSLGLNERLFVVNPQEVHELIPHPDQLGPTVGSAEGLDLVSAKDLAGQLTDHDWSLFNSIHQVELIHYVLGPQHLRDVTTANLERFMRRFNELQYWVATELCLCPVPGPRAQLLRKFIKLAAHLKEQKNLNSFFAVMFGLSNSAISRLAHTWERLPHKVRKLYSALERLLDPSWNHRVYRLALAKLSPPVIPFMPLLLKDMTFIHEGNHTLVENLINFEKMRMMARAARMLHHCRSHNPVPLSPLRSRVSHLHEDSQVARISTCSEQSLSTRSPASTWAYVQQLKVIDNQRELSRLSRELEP
UniProt O94782, sequence (O94782 whole entry, looked up): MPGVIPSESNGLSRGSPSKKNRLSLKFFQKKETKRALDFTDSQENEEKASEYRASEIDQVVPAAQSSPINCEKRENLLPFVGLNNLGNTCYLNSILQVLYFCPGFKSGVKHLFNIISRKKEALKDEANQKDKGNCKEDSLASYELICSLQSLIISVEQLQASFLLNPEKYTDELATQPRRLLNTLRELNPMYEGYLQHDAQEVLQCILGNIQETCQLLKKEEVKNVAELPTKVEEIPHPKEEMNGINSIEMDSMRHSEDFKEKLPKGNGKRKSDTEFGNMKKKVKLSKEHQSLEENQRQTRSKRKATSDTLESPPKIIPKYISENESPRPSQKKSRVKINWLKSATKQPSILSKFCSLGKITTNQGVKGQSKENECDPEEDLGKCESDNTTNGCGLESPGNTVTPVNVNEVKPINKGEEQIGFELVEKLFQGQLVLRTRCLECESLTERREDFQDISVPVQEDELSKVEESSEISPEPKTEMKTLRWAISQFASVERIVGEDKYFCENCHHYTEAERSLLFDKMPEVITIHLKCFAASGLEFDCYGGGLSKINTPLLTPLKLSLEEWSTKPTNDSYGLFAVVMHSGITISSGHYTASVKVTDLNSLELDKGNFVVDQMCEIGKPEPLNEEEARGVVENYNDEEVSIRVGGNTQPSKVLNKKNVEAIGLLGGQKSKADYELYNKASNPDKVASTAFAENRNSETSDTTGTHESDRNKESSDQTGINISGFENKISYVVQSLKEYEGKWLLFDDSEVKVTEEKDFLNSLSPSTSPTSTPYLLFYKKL

CN(N=Nc1ccc([N+](=O)[O-])cc1)c1ccccc1
Potency [1]: active: 112 µM
Potency [2]: active: 100 µM
Potency [3]: inconclusive [activator, partial curve, poor fit]

OCC[n+]1ccc(/C=C/c2c[nH]c3ccccc23)cc1
Potency [1]: active: 56.2 µM
Potency [2]: active: 100 µM
Potency [3]: active: 56.2 µM

COc1ccc(NC(=O)NS(=O)(=O)c2ccc(C)cc2)cn1
Potency [1]: inconclusive [activator, partial curve, poor fit]
Potency [2]: inconclusive [activator, partial curve]
Potency [3]: active: 63.1 µM

COC(=O)c1c(NC(=O)c2ccc(S(=O)(=O)N3CCCCC3C)cc2)sc2c1CCN(C(C)C)C2 (centres undefined)
Potency [1]: active: 112 µM
Potency [2]: inconclusive [activator, single point]
Potency [3]: active: 79.4 µM

Cc1ccc(CNC(=O)c2cccc3c2C(=O)c2ccc(N4CCCCC4)cc2S3(=O)=O)cc1
Potency [1]: active: 11.2 µM
Potency [2]: inconclusive [activator, single point]
Potency [3]: active: 11.2 µM

CCCCN1C(=O)/C(=C/C=C2\Oc3ccccc3N2CC)SC1=S
Potency [1]: active: 112 µM
Potency [2]: active: 100 µM
Potency [3]: active: 1.78 µM

CCOc1ccccc1Oc1nc(C)nc2c1oc1ccccc12
Potency [1]: inconclusive [activator, partial curve, poor fit]
Potency [2]: inactive
Potency [3]: inconclusive [activator, full curve, poor fit]

N#CC1=C(N)OC2=C(CC/C2=C\c2ccccc2)C1c1ccccc1 (centres undefined)
Potency [1]: inconclusive [activator, partial curve, poor fit]
Potency [2]: active: 112 µM
Potency [3]: inactive

N#Cc1cc(C(=O)c2ccccc2O)cn(-c2nccs2)c1=O
Potency [1]: active: 112 µM
Potency [2]: active: 100 µM
Potency [3]: active: 39.8 µM

Cc1cc(/C=C2\SC(=S)N(C)C2=O)c(C)n1-c1ccccc1O
Potency [1]: inconclusive [activator, partial curve, poor fit]
Potency [2]: active: 100 µM
Potency [3]: active: 89.1 µM

COC(=O)c1ccccc1-c1c2ccc(=N)cc-2oc2cc(N)ccc12
activation [1]: inconclusive: 135% [activator]
Potency [2]: inconclusive [activator, full curve, poor fit]
Potency [3]: inconclusive [activator, full curve, poor fit]

O=C(NCCC1CCCCN1S(=O)(=O)c1ccc(Cl)cc1)C(=O)NCc1ccco1 (centres undefined)
Potency [1]: inconclusive [activator, single point]
Potency [2]: inconclusive [activator, single point]
Potency [3]: active: 89.1 µM

COc1ccccc1-c1cc(NCc2cccc(C)c2)ncn1
activity change, negative = inhibition [4]: inactive: 1.95% [at 7.69 µM]
Potency [5]: inactive
Potency [6]: inconclusive [falling, partial curve]
Potency [7]: active: 35.5 µM
Potency [8]: inconclusive [falling, single point]
Potency [9]: inconclusive [inhibitor, partial curve, poor fit]
Potency [1]: inconclusive [activator, partial curve, poor fit]
Potency [2]: inconclusive [activator, partial curve, poor fit]
Potency [10]: inactive

CCCN1C(=O)c2cccc3c(N4CCCCC4)ccc(c23)C1=O
Potency [1]: inconclusive [activator, partial curve, poor fit]
Potency [2]: active: 100 µM
Potency [3]: active: 39.8 µM

Cc1ccc2[nH]cc(/C=C/c3cc[n+](C)cc3)c2c1
Potency [1]: inconclusive [activator, partial curve, poor fit]
Potency [2]: active: 112 µM
Potency [3]: active: 56.2 µM

N=C1/C(=C\c2coc3ccc(O)cc3c2=O)C(=O)N=C2SC=CN12
Potency [1]: inconclusive [activator, partial curve, poor fit]
Potency [2]: active: 112 µM
Potency [3]: active: 44.7 µM

— PubChem BioAssay (NCATS)
